This is an account of results in the supplement of paper PMC7238544.

Where a name gives a salt, the structure may show the parent alone. ± gives the standard deviation of the averaged measurements. Some of the results follow.
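For transfection efficiency (EGFP+ cells / Hoechst count) fold change vs vehicle control in this document: compounds added 30 min before Lipofectamine 3000 lipoplex transfection, triplicate means relative to DMSO vehicle wells on the same plate, luciferase RLU normalized to BCA total protein.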
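For transgenic luciferase activity (RLU/mg protein) fold change vs vehicle control in this document: compounds in DMSO added 30 min before Lipofectamine 3000 transfection of pEGFP-Luc in 96-well plates, values are means of triplicate wells over DMSO vehicle wells on the same plate.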

The first experiment has as its system hAMSC donor 1. In words: transgenic luciferase activity (RLU/mg protein) fold change vs vehicle control (ratio); higher = more transgene expression. The note with it: priming compound concentration 100 µM.
For `O=c1[nH]c(=O)n([C@H]2C[C@H](O)[C@@H](CO)O2)cc1F` [Floxuridine], the transgenic luciferase activity is 0.684 ± 0.24. As to `CNCCCN1c2ccccc2CCc2ccccc21` [Desipramine hydrochloride], the transgenic luciferase activity stood at 0.0173 ± 0.015.

As for `COc1ccc([C@@H]2Sc3ccccc3N(CCN(C)C)C(=O)[C@@H]2OC(C)=O)cc1` [(+)-cis-Diltiazem hydrochloride], the transgenic luciferase activity came out at 10.8 ± 3.4.

In the case of `Nc1ccc(O)c(C(=O)O)c1` [Mesalamine], the transgenic luciferase activity stood at 0.651 ± 0.13.

In the next experiment the test system is hAMSC donor 2. The description is as above. As to conditions: priming compound concentration 100 µM.
In the case of `Clc1ccc2c(c1)C(N1CCNCC1)=Nc1ccccc1O2` [Amoxapine], the transgenic luciferase activity came to 0.00166 ± 0.00034. In the case of `CN1CCN(CCCN2c3ccccc3Sc3ccc(Cl)cc32)CC1` [Prochlorperazine maleate], the transgenic luciferase activity came out at 0.000284 ± 3.5e-05. Still for that read-out and setting: as for `CNCC[C@H](Oc1cccc2ccccc12)c1cccs1` [Duloxetine hydrochloride], the figure is 0.00555 ± 0.0079.

The next experiment concerns hAMSC donor 1. Description: transfection efficiency (EGFP+ cells / Hoechst count) fold change vs vehicle control (ratio); hAMSC are human adipose-derived mesenchymal stem cells given an EGFP-luciferase plasmid by lipofection; higher = enhanced transfection. The note with it: priming compound concentration 100 µM.
`O=C(O)c1cc(=O)c2c(OCC(O)COc3cccc4oc(C(=O)O)cc(=O)c34)cccc2o1` [Cromolyn sodium]: the transfection efficiency turned out to be 0.775 ± 0.18. Same read-out and setting: as for `CC(C)C[C@@H](NC(=O)OCC1c2ccccc2-c2ccccc21)C(=O)O` [N-Fmoc-D-leucine], the figure is 1.86 ± 0.14.

`CN1CCN(C2=Nc3cc(Cl)ccc3Nc3ccccc32)CC1` [Clozapine]: the transfection efficiency was 0.668 ± 0.13. As for `CN(C)CC[C@@H](c1ccc(Br)cc1)c1ccccn1` [Dexbrompheniramine maleate], the transfection efficiency was 0.716 ± 0.13. Turning to `CNCCCC12CCC(c3ccccc31)c1ccccc12` [Maprotiline hydrochloride], the transfection efficiency came out at 0.469 ± 0.63.

Turning to `CC12CC3CC(C)(C1)CC(N)(C3)C2` [Memantine hydrochloride], the transfection efficiency is 0.92 ± 0.2. Regarding `COc1cc(OC)c(C(=O)CCCN2CCCC2)c(OC)c1` [Buflomedil hydrochloride], the transfection efficiency stood at 0.801 ± 0.17. The same measure, in the same setting: the value for `CC(=O)CC(c1ccccc1)c1c(O)c2ccccc2oc1=O` (stereo unspecified) [Warfarin sodium] was 0.995 ± 0.21. As to `CN(C)CCCN1c2ccccc2CCc2ccccc21` [Imipramine hydrochloride], the transfection efficiency was 0.522 ± 0.22. Consider `C[C@@H]1C[C@H]2[C@@H]3CCC4=CC(=O)C=C[C@]4(C)[C@@]3(F)[C@@H](O)C[C@]2(C)[C@@]1(O)C(=O)COP(=O)(O)O` [Dexamethasone sodium phosphate], for which the transfection efficiency worked out at 2.36 ± 0.48. Same read-out and setting: the value for `Cc1ccc(C)c(OCCCC(C)(C)C(=O)O)c1` [Gemfibrozil] was 1.2 ± 0.074; that for `O=C1CCC(N2C(=O)c3ccccc3C2=O)C(=O)N1` (stereo unspecified) [Thalidomide] was 1.23 ± 0.018; that for `O=C1CCc2cc(OCCCCc3nnnn3C3CCCCC3)ccc2N1` [Cilostazol] was 0.815 ± 0.18. Still for that read-out and setting: the value for `CO/N=C(\C(=O)N[C@@H]1C(=O)N2C(C(=O)O)=C(COC(N)=O)CS[C@H]12)c1ccco1` [Cefuroxime] was 1.02 ± 0.82; that for `CNCC(O)c1ccc(O)c(O)c1` (stereo unspecified) [Racepinephrine] was 0.657 ± 0.12. Still for that read-out and setting: the value for `Clc1ccc2c(c1)C(N1CCNCC1)=Nc1ccccc1O2` [Amoxapine] was 0.602 ± 0.53; that for `CC[C@H]1OC(=O)[C@H](C)[C@@H](O[C@H]2C[C@@](C)(OC)[C@@H](O)[C@H](C)O2)[C@H](C)[C@@H](O[C@@H]2O[C@H](C)C[C@H](N(C)C)[C@H]2O)[C@](C)(O)C[C@@H](C)C(=O)[C@H](C)[C@@H](O)[C@]1(C)O` [Erythromycin] was 0.579 ± 0.24. `CO[C@H]1/C=C/O[C@@]2(C)Oc3c(C)c(O)c4c(O)c(c(/C=N/N5CCN(C)CC5)c(O)c4c3C2=O)NC(=O)/C(C)=C\C=C\[C@H](C)[C@H](O)[C@@H](C)[C@@H](O)[C@@H](C)[C@H](OC(C)=O)[C@@H]1C` [Rifampicin]: the transfection efficiency is 0.401 ± 0.062.

For the compound `COC1=CC(=O)C[C@@H](C)[C@]12Oc1c(Cl)c(OC)cc(OC)c1C2=O` [Griseofulvin], the transfection efficiency was 0.333 ± 0.1. Still for that read-out and setting: the value for `NC(=O)c1cnccn1` [Pyrazinamide] was 1.21 ± 0.15; that for `Cc1cccc(Nc2ccccc2C(=O)O)c1C` [Mefenamic acid] was 1.13 ± 0.062; that for `CCC1(c2ccccc2)C(=O)NCNC1=O` [Primidone] was 0.758 ± 0.2. The same measure, in the same setting: as for `CC(C)OC(=O)C(C)(C)Oc1ccc(C(=O)c2ccc(Cl)cc2)cc1` [Fenofibrate], the figure is 0.755 ± 0.18; as for `CC(=O)OCC(=O)[C@@]12OC(C)(C)O[C@@H]1C[C@H]1[C@@H]3C[C@H](F)C4=CC(=O)C=C[C@]4(C)[C@@]3(F)[C@@H](O)C[C@@]12C` [Fluocinolone acetonide 21-acetate], 3.73 ± 1.3. The same measure, in the same setting: the value for `CCN(CC)CCOC(=O)C1(C2CCCCC2)CCCCC1` [Dicyclomine hydrochloride] was 0.201 ± 0.015. `CCCC(=O)Nc1ccc(OCC(O)CNC(C)C)c(C(C)=O)c1` (stereo unspecified) [Acebutolol hydrochloride]: the transfection efficiency turned out to be 0.878 ± 0.24. Same read-out and setting: the value for `CN1CCN(CCCN2c3ccccc3Sc3ccc(Cl)cc32)CC1` [Prochlorperazine maleate] was 3.45 ± 5.4. On the same count and under the same terms, as for `CO/N=C(\C(=O)N[C@@H]1C(=O)N2C(C(=O)O)=C(COC(C)=O)CS[C@H]12)c1csc(N)n1` [Cefotaxime sodium], the figure is 1.41 ± 0.88; as for `CC(C)C(=O)Nc1ccc([N+](=O)[O-])c(C(F)(F)F)c1` [Flutamide], 1.11 ± 0.25; as for `Clc1ccc(CO/N=C(\Cn2ccnc2)c2ccc(Cl)cc2Cl)c(Cl)c1` [Oxiconazole nitrate], 0.498 ± 0.16. The same measure, in the same setting: as for `CC1Cc2ccccc2N1NC(=O)c1ccc(Cl)c(S(N)(=O)=O)c1` (stereo unspecified) [Indapamide], the figure is 0.633 ± 0.29. On to `C[C@@H]1C/C=C/C=C/C=C/C=C/[C@H](O[C@@H]2O[C@H](C)[C@@H](O)[C@H](N)[C@@H]2O)C[C@@H]2O[C@](O)(C[C@@H](O)C[C@H]3O[C@@H]3/C=C/C(=O)O1)C[C@H](O)[C@H]2C(=O)O` [Natamycin], for which the transfection efficiency came to 0.354 ± 0.032. On the same count and under the same terms, as for `CNCC[C@H](Oc1cccc2ccccc12)c1cccs1` [Duloxetine hydrochloride], the figure is 0.423 ± 0.12; as for `CN/C(=N\CCSCc1nc[nH]c1C)NC#N` [Cimetidine], 1.36 ± 0.33. On the same count and under the same terms, the value for `COC(=O)C[C@](O)(CCCC(C)(C)O)C(=O)O[C@@H]1C(OC)=C[C@]23CCCN2CCc2cc4c(cc2[C@H]13)OCO4` [Homoharringtonine] was 0.338 ± 0.22. Still for that read-out and setting: the value for `O=c1[nH]c(=O)n([C@H]2C[C@H](O)[C@@H](CO)O2)cc1F` [Floxuridine] was 0.889 ± 0.21; that for `CNCCCN1c2ccccc2CCc2ccccc21` [Desipramine hydrochloride] was 0.617 ± 0.62. For the compound `COc1ccc([C@@H]2Sc3ccccc3N(CCN(C)C)C(=O)[C@@H]2OC(C)=O)cc1` [(+)-cis-Diltiazem hydrochloride], the transfection efficiency worked out at 1.5 ± 0.12. Turning to `Nc1ccc(O)c(C(=O)O)c1` [Mesalamine], the transfection efficiency was found to be 0.563 ± 0.11.
